The whole screen tested about 52,000 compounds, of which about 4,300 (8.3%) were called active. No stated cut-off is given here; in the data, active means survival mostly below about 52% (no sharp cut-off); inactive means mostly above about 56%. The list shows a part of the results.

The results in this text go back to PubChem BioAssay AID463173 (ICCB-Longwood Screening Facility, Harvard Medical School, 2010).

This experiment has as its system DeltatarO mutant. The experiment in a line: growth inhibition of S. aureus wild type versus tarO mutant, primary screen, teichoic acid synthesis inhibitors, RN4220, OD600 (AID 463173). The following applies: OD600, 18 h, hits give low values, screened at 18.75 µg/mL (by protocol).
For `CCN(C(=O)c1cc2c(s1)-c1ccccc1OC2)c1cccc(C(F)(F)F)c1`, the survival was active: -1%.

With `COc1ccc(NC(=O)c2cc(C3CC3)nc3c2c(C)nn3-c2ccccc2)cc1OC`, the survival is inactive: 57%.

`Cc1ccc(NC(=O)c2c(NC(=O)C(F)(F)F)sc3c2CCCCC3)cc1`: the survival is active: -5%.

For the molecule `O=C(Cn1c(-c2cccs2)cc2ccccc21)NCCCN1CCN(c2ccccc2F)CC1`, the survival was inactive: 69%.

Turning to `O=C(CSc1nccn1Cc1ccccc1)Nc1ccc2c(c1)OCCO2`, the survival was inactive: 71%.

Consider `O=C(CSc1nnc(COc2ccccc2)o1)Nc1cc(C(F)(F)F)ccc1Cl`, for which the survival is inactive: 58%.

On to `Cc1ccc(CNC(=O)Cn2cccc2C(=O)c2ccccc2C)cc1`, for which the survival is inactive: 80%.

With `COc1ccc(Cl)cc1NC(=O)CCn1c(=O)oc2ccccc21`, the survival is active: 40%.

On to `O=c1[nH]c(SCc2ccc([N+](=O)[O-])cc2)nc2c1CCCC2`, for which the survival is inactive: 65%.

Consider `Cc1ccccc1NC(=O)CSc1ccc(-c2cccs2)nn1`, for which the survival is inactive: 98%.

Regarding `Cc1ccc(N(CC(=O)Nc2ccc(C)c(Cl)c2)S(=O)(=O)c2cccs2)cc1`, the survival was inactive: 81%.

As for `COc1cccc(NC(=O)Cn2c(=O)n(-c3ccccc3)c(=O)c3c2c2cc(OC)ccc2n3C)c1`, the survival was inactive: 86%.

As to `O=S(=O)(c1ccc(-c2cnc(C3CC3)o2)cc1)N1CCN(c2ccccc2)CC1`, the survival was inactive: 66%.

On to `CC1=C(C(=O)OC2CCCC2)C(c2ccccc2C(F)(F)F)CC(=O)N1` (centres undefined), for which the survival was inactive: 84%.

For `COc1ccc(/C=C(\NC(=O)c2ccccc2)C(=O)N2CCOCC2)cc1`, the survival is inactive: 99%.

As for `Cc1cccc(CSc2ncccc2C(=O)O)c1`, the survival was active: 47%.

As to `COc1ccc(-n2c(=O)c3ccc(C(=O)NCc4ccc(C)cc4)cc3n(Cc3ccc(Cl)cc3)c2=O)cc1`, the survival is inactive: 69%.

For the molecule `CCOC(=O)c1cc2occc2n1CC(=O)N1CCCCC1`, the survival is inactive: 98%.

As for `COCCn1c(C)cc(O)c(C(c2ccc(F)cc2)N2CCC(C)CC2)c1=O` (centres undefined), the survival is inactive: 87%.

In the case of `COc1ccc(-n2nc3c(N4CCCC(C(=O)NCCc5ccccc5C)C4)nnc(C)c3c2C)cc1` (centres undefined), the survival was inactive: 70%.

For the molecule `CC1=NN(c2ccc(Cl)cc2)C(=O)C1`, the survival is inactive: 68%.

Take `O=C(c1ccc2c(c1)N(Cc1ccc(Cl)cc1)C(=O)c1ccccc1S2(=O)=O)N1CCN(c2ccccn2)CC1`: the survival was inactive: 80%.

For the molecule `Cc1cccc(CSc2nnc3[nH]c(=O)cc(-c4ccccc4)n23)c1`, the survival was inactive: 67%.

Regarding `COc1cc(-c2nc3ccc(Cl)cn3c2Nc2ccc3c(c2)OCCO3)ccc1O`, the survival was inactive: 58%.

Consider `CCOc1ccc(NC(=O)N2CCC(N3CCCCC3)CC2)cc1`, for which the survival was inactive: 114%.

Consider `Cc1cc(NC(=O)C2CCCN(S(=O)(=O)c3cccc4nsnc34)C2)ccc1Br` (centres undefined), for which the survival was inactive: 80%.

Turning to `Cc1cccc(N2CCN(C(=O)Nc3ccccc3F)CC2=O)c1C`, the survival is inactive: 92%.

Take `O=C(Nc1cc(Cl)cc(Cl)c1)c1ccc(F)c(S(=O)(=O)N2CCN(c3ccccc3F)CC2)c1`: the survival was inactive: 84%.

Consider `N#Cc1ccc(-c2ccc(OCC3CNC(=O)O3)cc2)cc1` (centres undefined), for which the survival is inactive: 63%.

In the case of `Cc1ccc(NC(=O)COc2ccc3oc4c(c3c2)CCCC4)cc1C`, the survival is inactive: 70%.

Consider `Cc1ccc(CN2COc3c(Cl)cc4c(-c5ccccc5)cc(=O)oc4c3C2)cc1`, for which the survival was inactive: 61%.

For `CCc1cccc(NC(=O)c2ccc3c(c2)c(C)c(C)n3Cc2ccc(F)cc2)c1`, the survival was inactive: 99%.

On to `CCOc1ccccc1NC(=O)c1c(NC(=O)Cc2ccc(OC)cc2)sc2c1CCC2`, for which the survival was inactive: 61%.

As for `Cc1ccc(OCC(=O)Nc2cccc(C(=O)OCc3cc(=O)n4c(C)csc4n3)c2)cc1`, the survival is inactive: 89%.

`Cc1cccc(NC(=O)CSc2nnc(CSc3nc(C)cc(C)n3)o2)c1`: the survival is inactive: 87%.

For the molecule `Cc1ccccc1OCC(=O)OCc1cc(=O)n2nc(-c3cccs3)sc2n1`, the survival is inactive: 87%.

Take `COc1ccccc1CNC(=O)c1nnn(CC(=O)Nc2c(C)cccc2C)c1N`: the survival is inactive: 92%.

For the molecule `Cn1c(C(=O)Nc2ccc(OC(F)(F)F)cc2)cc2c(=O)n3ccccc3nc21`, the survival is active: 55%.

In the case of `Cc1ccc(CNC(=O)CN2N=C(c3ccccc3)CCC2=O)cc1`, the survival is inactive: 89%.

`CC(=O)c1ccc(N2CCN(c3ncnc4c3cnn4-c3cc(Cl)ccc3C)CC2)cc1`: the survival was inactive: 122%.

As for `CCOc1ccc2oc(=O)cc(CN3CCN(c4ccccc4OC)CC3)c2c1`, the survival is inactive: 77%.

`CCc1ccc(OCc2cc(=O)n3cc(C)sc3n2)cc1`: the survival is inactive: 76%.

With `COc1cc(OC)c(OC)cc1CNCCCSc1nnnn1C`, the survival is inactive: 87%.

With `COc1cccc(NC(=O)Cn2c(=O)n(CCc3ccc(OC)c(OC)c3)c(=O)c3ccccc32)c1`, the survival is inactive: 84%.

With `COc1ccc(C(=O)N(Cc2cc(OC)c(OC)c(OC)c2)C2CCS(=O)(=O)C2)cc1Cl` (centres undefined), the survival was inactive: 58%.

Regarding `CCc1ccc(NCc2cc3ccc(OC)cc3n(CC(=O)Nc3ccc(C)c(Cl)c3)c2=O)cc1`, the survival was inactive: 86%.

Take `Cc1cc(C)cc(N(CC(=O)NCc2ccco2)S(C)(=O)=O)c1`: the survival was inactive: 83%.

For the molecule `O=C(CN1C(=O)COc2ccc(S(=O)(=O)N3CCOCC3)cc21)N1CCN(c2ccccc2F)CC1`, the survival is inactive: 85%.

As for `Cc1nn(-c2ccccc2)c2[nH]c(=O)c(CNCc3cccnc3)cc12`, the survival was inactive: 102%.

For `CC(=O)Nc1ccc(C(=O)N2CC(C)OC(C)C2)cc1` (centres undefined), the survival is inactive: 82%.

`Cc1ccc(NC(=O)C(=O)NCC2(c3ccccc3)CCCC2)cc1C`: the survival was inactive: 98%.

Take `CCCOc1ccc(CNC(=O)CN2C(=O)c3cccnc3Oc3ccc(C)cc32)cc1`: the survival was inactive: 85%.

With `COc1ccc(S(=O)(=O)N/N=C(/C2CCCCC2)C(F)(F)F)cc1`, the survival is active: 35%.

Regarding `CSc1nc(C)cc(C)c1C(N)=O`, the survival was inactive: 93%.

Consider `O=C(NCCCO)c1nn(-c2ccc(Cl)cc2)nc1CO`, for which the survival is inactive: 80%.

Consider `COC(=O)C1CCN(c2csc3ccc(Cl)cc3c2=O)CC1`, for which the survival is inactive: 85%.

Regarding `CCOC(=O)c1c(S(=O)(=O)N2CCC(C(=O)N3CCN(c4ccc(F)cc4)CC3)CC2)c(C)n(C)c1C`, the survival was inactive: 83%.

As for `CCn1nnc2cc(C(=O)Nc3ccc(Br)cc3F)ccc21`, the survival was inactive: 76%.

Turning to `NCCCSC1=NCCCN1`, the survival is inactive: 100%.
